From a collection of fitness landscapes (doi:10.1038/s41467-024-54723-y)
Whole data set: some 18,000 sequences, median “TetR repression strength (sort-seq, GFP reporter)” near 0.23, cut for the highest 2% near 0.68. The list shows a part of the results.

What follows are sequences tested against TetR (class B, Tn10) (UniProt P04483) (assay: TetR repression strength (sort-seq, GFP reporter) (relative to tetO2 = 1); higher = stronger repression). Details: E. coli.
Summary of the method: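 In LB with 50 µg/mL chloramphenicol, E. coli SIG10-MAX holding a low-copy library with eight randomized operator positions between a constitutive promoter and sfGFP, plus constitutive TetR, grew for 5 h at 37 °C. FACS then sorted 10^6 cells into 13 fluorescence bins for Illumina sequencing of each bin. Repression strength equals the top bin index plus one less the read-weighted mean bin, normalized to the unaltered operator. Values from three independent transformations were averaged when reads were ≥30 in every replicate and the CV was ≤0.5.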

UniProt P04483, sequence (P04483 whole entry): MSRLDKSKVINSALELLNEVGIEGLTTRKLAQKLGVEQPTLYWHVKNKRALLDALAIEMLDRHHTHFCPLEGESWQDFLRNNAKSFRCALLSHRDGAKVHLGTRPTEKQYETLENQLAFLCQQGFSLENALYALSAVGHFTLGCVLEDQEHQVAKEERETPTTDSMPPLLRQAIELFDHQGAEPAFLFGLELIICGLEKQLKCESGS

Row | Sequence | TetR repression strength
1 | TCCCTGACAGTAGGGGAGA | 0.294
2 | TCCCCGTGAGTCGAGGAGA | 0.137
3 | TCCCAGTAAGTATGAGAGA | 0.272
4 | TCCCTCGAAGTATCGGAGA | 0.166
5 | TCCCACAGAGTGGCGGAGA | 0.304
6 | TCCCGGTGAGTGGCCGAGA | 0.466
7 | TCCCAGTCAGTCCCTGAGA | 0.141
8 | TCCCTATCAGTCATCGAGA | 0.747
9 | TCCCGACCAGTTTCGGAGA | 0.0546
10 | TCCCTCCTAGTGTTCGAGA | 0.514
11 | TCCCCGGGAGTGTCAGAGA | 0.0679
12 | TCCCTCATAGTGGAGGAGA | 0.16
13 | TCCCAACGAGTTAAAGAGA | 0.278
14 | TCCCTCCAAGTTTGTGAGA | 0.28
15 | TCCCCCCGAGTAACGGAGA | 0.153
16 | TCCCGAAGAGTGCGAGAGA | 0.245
17 | TCCCGAAAAGTACAAGAGA | 0.349
18 | TCCCGGTGAGTAAACGAGA | 0.0592
19 | TCCCATGGAGTAGGGGAGA | 0.12
20 | TCCCGAACAGTTACGGAGA | 0.202
21 | TCCCCACCAGTGGACGAGA | 0.135
22 | TCCCAGATAGTGCTTGAGA | 0.0333
23 | TCCCTTTCAGTATTCGAGA | 0.394
24 | TCCCGTGCAGTTGGTGAGA | 0.238
25 | TCCCAACAAGTTCATGAGA | 0.195
26 | TCCCGCCCAGTCATGGAGA | 0.284

Row | Sequence | TetR repression strength
27 | TCCCATGTAGTAACAGAGA | 0.175
28 | TCCCCGTGAGTGCTGGAGA | 0.102
29 | TCCCCCGAAGTCGCTGAGA | 0.316
30 | TCCCACCTAGTGACTGAGA | 0.338
31 | TCCCGGACAGTCCGCGAGA | 0.21
32 | TCCCTAGAAGTTGGTGAGA | 0.46
33 | TCCCGAAGAGTCGCAGAGA | 0.285
34 | TCCCAGTCAGTGCGAGAGA | 0.253
35 | TCCCGATTAGTCGGCGAGA | 0.265
36 | TCCCTGATAGTAGTGGAGA | 0.133
37 | TCCCATCAAGTAACGGAGA | 0.118
38 | TCCCGTATAGTGGAGGAGA | 0.054
39 | TCCCAGCGAGTAGGAGAGA | 0.084
40 | TCCCAGCGAGTGGGGGAGA | 0.275
41 | TCCCGTAAAGTACCGGAGA | 0.183
42 | TCCCACCTAGTTGGGGAGA | 0.251
43 | TCCCTGCAAGTTGTGGAGA | 0.0932
44 | TCCCGAGCAGTTTGGGAGA | 0.214
45 | TCCCACGGAGTGACTGAGA | 0.361
46 | TCCCGAGGAGTTGAAGAGA | 0.0679
47 | TCCCTGCCAGTTCGGGAGA | 0.304
48 | TCCCGAAGAGTGCGGGAGA | 0.272
49 | TCCCGTCGAGTTAGAGAGA | 0.334
50 | TCCCGTACAGTCGATGAGA | 0.138
51 | TCCCGTACAGTCGGCGAGA | 0.159
52 | TCCCACCGAGTTGTAGAGA | 0.108

Row | Sequence | TetR repression strength
53 | TCCCCGAAAGTCTAGGAGA | 0.224
54 | TCCCGCGCAGTGCCAGAGA | 0.363
55 | TCCCAACGAGTTGTGGAGA | 0.189
56 | TCCCGGATAGTTGTGGAGA | 0.298
57 | TCCCTATTAGTAACTGAGA | 0.378
58 | TCCCGCAGAGTGGGGGAGA | 0.213
59 | TCCCACAAAGTTGAAGAGA | 0.553
60 | TCCCCATCAGTGTGAGAGA | 0.146
61 | TCCCCTACAGTGGCGGAGA | 0.143
62 | TCCCGTTTAGTACTAGAGA | 0.075
63 | TCCCCGTGAGTCAGAGAGA | 0.963
64 | TCCCAGTGAGTGCTGGAGA | 0.111
65 | TCCCTGCGAGTGCGAGAGA | 0.049
66 | TCCCAGCGAGTGCGGGAGA | 0.304
67 | TCCCTGGCAGTGATAGAGA | 0.489
68 | TCCCGTTGAGTAAGCGAGA | 0.104
69 | TCCCAATCAGTTTTGGAGA | 0.207
70 | TCCCCTGTAGTCACCGAGA | 0.402
71 | TCCCGTCTAGTGAAGGAGA | 0.315
72 | TCCCAGGCAGTGGGGGAGA | 0.193
73 | TCCCCGGTAGTCGAGGAGA | 0.315
74 | TCCCTGGTAGTCTCGGAGA | 0.203
75 | TCCCAAAGAGTAATTGAGA | 0.104
76 | TCCCGGCGAGTCTGTGAGA | 0.316
77 | TCCCAGGCAGTCTCGGAGA | 0.385
78 | TCCCGTTAAGTAGGGGAGA | 0.47

Row | Sequence | TetR repression strength
79 | TCCCAGTTAGTATTTGAGA | 0.0715
80 | TCCCCTTTAGTATTCGAGA | 0.334
81 | TCCCCCCGAGTGCAGGAGA | 0.304
82 | TCCCCACCAGTGTTGGAGA | 0.274
83 | TCCCGTTCAGTTGCGGAGA | 0.0104
84 | TCCCTTGAAGTAAGCGAGA | 0.442
85 | TCCCGGAAAGTCCGAGAGA | 0.34
86 | TCCCATGAAGTAGCCGAGA | 0
87 | TCCCGGCAAGTGAAGGAGA | 0.459
88 | TCCCGTCTAGTGCGCGAGA | 0.334
89 | TCCCACTGAGTGTATGAGA | 0.175
90 | TCCCTAATAGTACCAGAGA | 0.377
91 | TCCCAATGAGTAGCTGAGA | 0.0946
92 | TCCCCTTGAGTCATAGAGA | 0.304
93 | TCCCGGAGAGTGACTGAGA | 0.147
94 | TCCCCGTTAGTTAAGGAGA | 0.149
95 | TCCCGATCAGTGGGCGAGA | 0.187
96 | TCCCGGGGAGTATTGGAGA | 0.393
97 | TCCCGGTAAGTGCGAGAGA | 0.0234
98 | TCCCAAAGAGTATGGGAGA | 0.15
99 | TCCCGAATAGTGTGAGAGA | 0.299
100 | TCCCGTGGAGTGCACGAGA | 0.315
101 | TCCCCATTAGTGTAGGAGA | 0.162
102 | TCCCGTGGAGTCAGTGAGA | 0.411
